T1: RBFOX1 RRM RbFoxmut (Fox-RRM*) (Homo sapiens, UniProt Q9NWB1 109-208, R118D;E147R;N151S;E152T)
T1 sequence: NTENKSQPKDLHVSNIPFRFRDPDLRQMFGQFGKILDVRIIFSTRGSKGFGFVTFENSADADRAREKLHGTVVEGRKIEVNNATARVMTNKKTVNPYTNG

B1: UUAUAGU (DNA:RNA)
RNA: GGGAGACCGGAAUUCAGAUUGUCCUUAUAGUUUAAAUCCCGUCGUAGCCACCA
DNA 1: CAATCTGAATTCCGGTCTCCC
DNA 2: TGGTGGCTACGACGGGATT
B2: UCCCACU (DNA:RNA)
RNA: B1 RNA with U26C, A27C, U28C, G30C
DNA 1: CAATCTGAATTCCGGTCTCCC
DNA 2: TGGTGGCTACGACGGGATT
B3: CGGGACU (DNA:RNA)
RNA: B1 RNA with U25C, U26G, A27G, U28G, G30C
DNA 1: CAATCTGAATTCCGGTCTCCC
DNA 2: TGGTGGCTACGACGGGATT
B4: CAACGCU (DNA:RNA)
RNA: B1 RNA with U25C, U26A, U28C, A29G, G30C
DNA 1: CAATCTGAATTCCGGTCTCCC
DNA 2: TGGTGGCTACGACGGGATT
B5: GGGCCAA (DNA:RNA)
RNA: GGGAGACCGGAAUUCAGAUUGUCCGGGCCAAUUAAAUCCCGUCGUAGCCACCA
DNA 1: CAATCTGAATTCCGGTCTCCC
DNA 2: TGGTGGCTACGACGGGATT
B6: ACCAAAC (DNA:RNA)
RNA: B5 RNA with G25A, G26C, G27C, C28A, C29A, A31C
DNA 1: CAATCTGAATTCCGGTCTCCC
DNA 2: TGGTGGCTACGACGGGATT
B7: CUGCCAG (DNA:RNA)
RNA: B5 RNA with G25C, G26U, A31G
DNA 1: CAATCTGAATTCCGGTCTCCC
DNA 2: TGGTGGCTACGACGGGATT
B8: CGCCCUU (DNA:RNA)
RNA: B5 RNA with G25C, G27C, A30U, A31U
DNA 1: CAATCTGAATTCCGGTCTCCC
DNA 2: TGGTGGCTACGACGGGATT
B9: GCGGCCU (DNA:RNA)
RNA: B5 RNA with G26C, C28G, A30C, A31U
DNA 1: CAATCTGAATTCCGGTCTCCC
DNA 2: TGGTGGCTACGACGGGATT
B10: CAUCAUU (DNA:RNA)
RNA: B1 RNA with U25C, U26A, A27U, U28C, G30U
DNA 1: CAATCTGAATTCCGGTCTCCC
DNA 2: TGGTGGCTACGACGGGATT
B11: CAACAAU (DNA:RNA)
RNA: B1 RNA with U25C, U26A, U28C, G30A
DNA 1: CAATCTGAATTCCGGTCTCCC
DNA 2: TGGTGGCTACGACGGGATT
B12: CACUACA (DNA:RNA)
RNA: B1 RNA with U25C, U26A, A27C, G30C, U31A
DNA 1: CAATCTGAATTCCGGTCTCCC
DNA 2: TGGTGGCTACGACGGGATT
B13: GAUGGCU (DNA:RNA)
RNA: B5 RNA with G26A, G27U, C28G, C29G, A30C, A31U
DNA 1: CAATCTGAATTCCGGTCTCCC
DNA 2: TGGTGGCTACGACGGGATT
B14: CUUCGGU (DNA:RNA)
RNA: B1 RNA with U25C, A27U, U28C, A29G
DNA 1: CAATCTGAATTCCGGTCTCCC
DNA 2: TGGTGGCTACGACGGGATT
B15: UCUAGAG (DNA:RNA)
RNA: B5 RNA with G25U, G26C, G27U, C28A, C29G, A31G
DNA 1: CAATCTGAATTCCGGTCTCCC
DNA 2: TGGTGGCTACGACGGGATT
B16: GGGUCUC (DNA:RNA)
RNA: B5 RNA with C28U, A30U, A31C
DNA 1: CAATCTGAATTCCGGTCTCCC
DNA 2: TGGTGGCTACGACGGGATT
B17: UUAUCUC (DNA:RNA)
RNA: B1 RNA with A29C, G30U, U31C
DNA 1: CAATCTGAATTCCGGTCTCCC
DNA 2: TGGTGGCTACGACGGGATT
B18: CUAACGA (DNA:RNA)
RNA: B1 RNA with U25C, U28A, A29C, U31A
DNA 1: CAATCTGAATTCCGGTCTCCC
DNA 2: TGGTGGCTACGACGGGATT
B19: UGGUGCA (DNA:RNA)
RNA: B5 RNA with G25U, C28U, C29G, A30C
DNA 1: CAATCTGAATTCCGGTCTCCC
DNA 2: TGGTGGCTACGACGGGATT
B20: UACAUAG (DNA:RNA)
RNA: B5 RNA with G25U, G26A, G27C, C28A, C29U, A31G
DNA 1: CAATCTGAATTCCGGTCTCCC
DNA 2: TGGTGGCTACGACGGGATT
B21: ACCAUAA (DNA:RNA)
RNA: B5 RNA with G25A, G26C, G27C, C28A, C29U
DNA 1: CAATCTGAATTCCGGTCTCCC
DNA 2: TGGTGGCTACGACGGGATT
B22: AACCAUG (DNA:RNA)
RNA: B5 RNA with G25A, G26A, G27C, C29A, A30U, A31G
DNA 1: CAATCTGAATTCCGGTCTCCC
DNA 2: TGGTGGCTACGACGGGATT
B23: GUGUAAG (DNA:RNA)
RNA: B5 RNA with G26U, C28U, C29A, A31G
DNA 1: CAATCTGAATTCCGGTCTCCC
DNA 2: TGGTGGCTACGACGGGATT
B24: GUCCUCA (DNA:RNA)
RNA: B5 RNA with G26U, G27C, C29U, A30C
DNA 1: CAATCTGAATTCCGGTCTCCC
DNA 2: TGGTGGCTACGACGGGATT
B25: AGAUCUG (DNA:RNA)
RNA: B5 RNA with G25A, G27A, C28U, A30U, A31G
DNA 1: CAATCTGAATTCCGGTCTCCC
DNA 2: TGGTGGCTACGACGGGATT
B26: CAGAUUA (DNA:RNA)
RNA: B5 RNA with G25C, G26A, C28A, C29U, A30U
DNA 1: CAATCTGAATTCCGGTCTCCC
DNA 2: TGGTGGCTACGACGGGATT
B27: AGUCCGA (DNA:RNA)
RNA: B5 RNA with G25A, G27U, A30G
DNA 1: CAATCTGAATTCCGGTCTCCC
DNA 2: TGGTGGCTACGACGGGATT
B28: GGGCCCA (DNA:RNA)
RNA: B5 RNA with A30C
DNA 1: CAATCTGAATTCCGGTCTCCC
DNA 2: TGGTGGCTACGACGGGATT
B29: UCAAGAC (DNA:RNA)
RNA: B1 RNA with U26C, U28A, A29G, G30A, U31C
DNA 1: CAATCTGAATTCCGGTCTCCC
DNA 2: TGGTGGCTACGACGGGATT
B30: CUUUCUG (DNA:RNA)
RNA: B1 RNA with U25C, A27U, A29C, G30U, U31G
DNA 1: CAATCTGAATTCCGGTCTCCC
DNA 2: TGGTGGCTACGACGGGATT
B31: UAUGAGG (DNA:RNA)
RNA: B1 RNA with U26A, A27U, U28G, U31G
DNA 1: CAATCTGAATTCCGGTCTCCC
DNA 2: TGGTGGCTACGACGGGATT

Substitutions are numbered along the chain they refer to; changes in the protein carry UniProt numbers. The list shows a part of the results.

For the assay, the target named is T1, RBFOX1 RRM RbFoxmut (Fox-RRM*). The experiment in a line: EMSA; HiTS-Eq, 1 nM pool, 10 min; buffer printed only for the single-RNA assays: 10 mM Tris pH 7.5, 150 mM NaCl, 3.4 mM EDTA, 0.001% NP-40, 30 C. The settings on record: tags: His6 N-terminal (pET28a); label: 5' 32P. An outline of the steps:
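Relative association constants, normalised to the cognate motif, were derived by comparing read counts of each RNA species with those of the control reaction. The RNA sequenced was the free fraction, separated by 8% native PAGE after a 10 min equilibration in 50 µL of 1 nM 5′-radiolabelled RNA (7 randomized nucleotides) with increasing concentrations of purified wild-type or mutant RbFox RRM.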
For orientation: A gel shift assay detects complexes by their altered migration in electrophoresis.
Take B1: the binding signal is 0.102 KA relative to UGCAUGU.

As to B2, the binding signal was 0.065 KA relative to UGCAUGU.

In the case of B3, the binding signal was 0.0898 KA relative to UGCAUGU.

Regarding B4, the binding signal was 0.117 KA relative to UGCAUGU.

As for B5, the binding signal was 0.0698 KA relative to UGCAUGU.

As for B6, the binding signal is 0.0457 KA relative to UGCAUGU.

For the molecule B7, the binding signal is 0.0817 KA relative to UGCAUGU.

As to B8, the binding signal was 0.0724 KA relative to UGCAUGU.

B9: the binding signal is 0.0959 KA relative to UGCAUGU.

Take B10: the binding signal was 0.0898 KA relative to UGCAUGU.

Take B11: the binding signal is 0.0426 KA relative to UGCAUGU.

As for B12, the binding signal was 0.13 KA relative to UGCAUGU.

As to B13, the binding signal is 0.0996 KA relative to UGCAUGU.

On to B14, for which the binding signal is 0.095 KA relative to UGCAUGU.

As for B15, the binding signal is 0.116 KA relative to UGCAUGU.

Turning to B16, the binding signal was 0.105 KA relative to UGCAUGU.

For the molecule B17, the binding signal was 0.0808 KA relative to UGCAUGU.

On to B18, for which the binding signal is 0.0341 KA relative to UGCAUGU.

For B19, the binding signal is 0.226 KA relative to UGCAUGU.

As to B20, the binding signal is 0.0522 KA relative to UGCAUGU.

B21: the binding signal is 0.0904 KA relative to UGCAUGU.

For B22, the binding signal was 0.105 KA relative to UGCAUGU.

Consider B23, for which the binding signal was 0.124 KA relative to UGCAUGU.

Turning to B24, the binding signal was 0.114 KA relative to UGCAUGU.

With B25, the binding signal was 0.0701 KA relative to UGCAUGU.

B26: the binding signal is 0.141 KA relative to UGCAUGU.

On to B27, for which the binding signal is 0.0994 KA relative to UGCAUGU.

As to B28, the binding signal was 0.0935 KA relative to UGCAUGU.

With B29, the binding signal is 0.0628 KA relative to UGCAUGU.

Consider B30, for which the binding signal was 0.0626 KA relative to UGCAUGU.

In the case of B31, the binding signal is 0.102 KA relative to UGCAUGU.

Source of the values: publication PMC9911399, “Two distinct binding modes provide the RNA-binding protein RbFox with extraordinary sequence specificity”.
